PubChem BioAssay AID588342 (National Center for Advancing Translational Sciences (NCATS), 2011)
Screen size: about 360,000 compounds; about 25,000 (6.9%) were called active. The shares of active, inactive and inconclusive entries below differ from those in the screen. Calls follow the shape of the dose curve; as a rule, active = well fitted inhibition curve with a large enough effect; inconclusive = small, poorly fitted or top-dose-only effect; inactive = flat fitted curve, though single readings scatter. Potencies beside an inconclusive call are fits to weak or partial responses and may not hold up.

Target: Luciferin 4-monooxygenase (Photinus pyralis) (UniProt P08659)
Experiment: qHTS profiling assay for firefly luciferase inhibitor/activator using purifed enzyme and Km concentrations of substrates (counterscreen for miR-21 project); also: nearly all actives have a fitted effect of over 55% in size;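 as to activity change, negative = inhibition: plate controls were vehicle for no effect and reference inhibitor for full effect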
Conditions: purified FLuc, luminescence inhibition; activity change, negative = inhibition: at 57.5 µM (top of the series)
How it was run: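 Biochemical qHTS of compounds, final roughly 60 µM downward over six points, against 10 nM purified firefly luciferase using Km concentrations of substrates (10 uM D-luciferin, 10 uM ATP) in Tris acetate pH 7.5 buffer; luminescence output.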
Potency is read from the fitted curve at half-maximal effect; tags tell the direction and shape of the fitted curve.

UniProt P08659, sequence (P08659 whole entry, looked up): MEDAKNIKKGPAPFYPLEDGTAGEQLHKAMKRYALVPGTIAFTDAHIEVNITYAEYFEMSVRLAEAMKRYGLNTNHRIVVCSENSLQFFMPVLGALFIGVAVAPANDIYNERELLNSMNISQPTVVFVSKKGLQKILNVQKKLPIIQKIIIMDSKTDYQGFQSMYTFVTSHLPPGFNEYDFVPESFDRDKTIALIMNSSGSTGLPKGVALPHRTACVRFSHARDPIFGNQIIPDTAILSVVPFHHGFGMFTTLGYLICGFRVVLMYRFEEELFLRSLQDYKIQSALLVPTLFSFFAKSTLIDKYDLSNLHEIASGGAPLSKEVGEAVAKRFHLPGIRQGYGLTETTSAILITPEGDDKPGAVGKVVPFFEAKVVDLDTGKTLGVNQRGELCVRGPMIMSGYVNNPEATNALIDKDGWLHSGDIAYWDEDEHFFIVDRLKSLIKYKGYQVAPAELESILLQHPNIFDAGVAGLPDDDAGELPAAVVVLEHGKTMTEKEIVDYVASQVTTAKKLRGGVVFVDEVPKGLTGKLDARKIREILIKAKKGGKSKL

Question: `Cc1cccc(OCC(=O)Nc2ccccc2F)c1` was tested. Which Potency did it give?
Answer: active: 21.3 µM

Question: `O=C(O)C1CC=CCC1C(=O)Nc1ccc2c(c1)OCCO2` (configuration not stated) was tested. Which Potency did it give?
Answer: inconclusive: 37.9 µM [inhibitor, single point]

Question: For `Cc1ccc(C)c(OCCC(=O)OCC(=O)NC2CCS(=O)(=O)C2)c1` (configuration not stated), which “activity change, negative = inhibition” value is on record?
Answer: inactive: 3.03%

Question: With `Cc1ccc(C(=O)N/C(=C/c2ccco2)C(=O)NCCc2c[nH]c3ccccc23)cc1` as the compound, how does the Potency read?
Answer: active: 15.1 µM

Question: How did the Potency turn out when `Nn1c(=O)c2ccccc2n2c(SCc3ccccc3)nnc12` was run?
Answer: inconclusive: 26.9 µM [inhibitor, single point]

Question: With `COc1ccc(NS(=O)(=O)c2ccc(-c3cnc(C4CC4)o3)cc2)cc1OC` as the compound, how does the “activity change, negative = inhibition” value read?
Answer: inactive: 0.16%

Question: Which Potency does the source give for `COc1cccc(-c2nnc(SCC(=O)N3CCCCC3)o2)c1` here?
Answer: inconclusive: 37.9 µM [inhibitor, partial curve, poor fit]

Question: How did the “activity change, negative = inhibition” value turn out when `CC1=CC(=O)O[C@@H]1[C@@]1(C)C[C@H]2OC(=O)C[C@H]3[C@@H](C)C(=O)C(O)=C1[C@@]23CO` was run?
Answer: inactive: -6.13%

Question: `COc1cccc(NC(=S)NC(=O)c2cccnc2)c1` was tested. Which Potency did it give?
Answer: inconclusive: 23.9 µM [inhibitor, single point]

Question: Which Potency does the source give for `COc1ccc2[nH]c3ccccc3c2c1` here?
Answer: inconclusive: 26.9 µM [inhibitor, partial curve]

Question: With `COC(=O)Cc1ccc(NC(=O)c2ccc3c(c2)C(=O)N(Cc2cccnc2)C3=O)cc1` as the compound, how does the Potency read?
Answer: inconclusive: 23.9 µM [inhibitor, partial curve]

Question: Which Potency does the source give for `COc1ccc(-c2ccc(SCC(=O)NCc3ccco3)nn2)cc1` here?
Answer: active: 8.49 µM

Question: How did the Potency turn out when `CCCCNC(=S)NC(=O)c1ccc(Cl)cc1Cl` was run?
Answer: inconclusive: 37.9 µM [inhibitor, single point]

Question: Which Potency does the source give for `CN(C)c1ccc(C(=S)N2CCN(c3ccc([N+](=O)[O-])cc3)CC2)cc1` here?
Answer: inconclusive: 30.1 µM [inhibitor, partial curve, poor fit]

Question: How did the Potency turn out when `C(=N\Nc1nc2ccccc2s1)/c1ccccn1` was run?
Answer: active: 0.0757 µM

Question: How did the Potency turn out when `C/C(=N/NC(=O)c1cccs1)c1cccs1` was run?
Answer: active: 10.7 µM

Question: Which “activity change, negative = inhibition” value does the source give for `CC(=O)N1CCc2c(sc3c2c(=O)n(-c2cccc(Cl)c2C)c(=O)n3Cc2ccccc2C)C1` here?
Answer: inactive: -10.1%

Question: How did the “activity change, negative = inhibition” value turn out when `COC(=O)c1cccc([N+](=O)[O-])c1CN1CCCC(C(N)=O)C1` (configuration not stated) was run?
Answer: inactive: -2.03%

Question: With `O=C(NC12CC3CC(CC(C3)C1)C2)c1cc(F)c(F)c(F)c1F` as the compound, how does the “activity change, negative = inhibition” value read?
Answer: inactive: -4.35%

Question: How did the “activity change, negative = inhibition” value turn out when `CCOC(=O)c1c(NC(=O)/C=C/c2ccc(C)o2)sc(C)c1C` was run?
Answer: inactive: -14.3%

Question: How did the Potency turn out when `Cc1ccccc1C(=O)Nc1cccc(OCc2cc(=O)n3c4c(sc3n2)CCCC4)c1` was run?
Answer: inconclusive: 3.01 µM [inhibitor, partial curve, poor fit]

Question: For `CN(C)S(=O)(=O)c1ccc2c(c1)nc(CCC(=O)Nc1ccc(N3CCOCC3)cc1)n2C`, which Potency is on record?
Answer: inconclusive: 23.9 µM [inhibitor, partial curve]

Question: Which “activity change, negative = inhibition” value does the source give for `CC(NC(=O)C1CCCN1S(=O)(=O)c1cccc2nsnc12)c1ccccc1` (configuration not stated) here?
Answer: inactive: 0.0982%

Question: Which “activity change, negative = inhibition” value does the source give for `CC1CCCN(Cc2cccc(Oc3ccccc3)c2)C1` (configuration not stated) here?
Answer: inactive: 0.373%

Question: `O=C(N/N=C/c1ccc(N2CCCCC2)o1)c1ccccc1` was tested. Which Potency did it give?
Answer: inconclusive: 23.9 µM [inhibitor, partial curve]

Question: With `CC(C)(C)c1nnc(NC(=O)c2cccnc2)s1` as the compound, how does the Potency read?
Answer: inconclusive: 26.9 µM [inhibitor, partial curve, poor fit]

Question: `Cc1ccc(NC(=O)CN2C(=O)c3cccnc3Sc3ccccc32)cc1C` was tested. Which Potency did it give?
Answer: inconclusive: 21.3 µM [inhibitor, partial curve, poor fit]

Question: With `Cc1ccc(-c2nc(C3CCN(S(=O)(=O)c4ccc(C(C)(C)C)cc4)CC3)no2)cc1` as the compound, how does the “activity change, negative = inhibition” value read?
Answer: inactive: -5.9%

Question: How did the “activity change, negative = inhibition” value turn out when `Cc1nc2sc(C)c(C)n2c(=O)c1S(=O)(=O)N1CCN(c2ccccc2F)CC1` was run?
Answer: inactive: -8.8%

Question: With `COc1cc(/C=N/N(c2ccccc2)c2ccccc2)ccc1O` as the compound, how does the Potency read?
Answer: active: 19 µM

Question: With `COc1ccc(C(=O)NCCc2nnc3ccc(SCC(=O)Nc4ccccc4)nn23)cc1` as the compound, how does the Potency read?
Answer: active: 3.01 µM

Question: With `Oc1ccc2ccccc2c1CNc1ccccn1` as the compound, how does the Potency read?
Answer: inconclusive: 37.9 µM [inhibitor, single point]

Question: For `CS(=O)(=O)N1CCc2cc(C(=O)OCC(=O)c3ccccc3)ccc21`, which Potency is on record?
Answer: active: 4.78 µM

Question: With `CC(OC(=O)c1ccc(C(C)(C)C)cc1)C(=O)NC1CCCCC1C` (configuration not stated) as the compound, how does the Potency read?
Answer: inconclusive: 30.1 µM [inhibitor, partial curve, poor fit]

Question: How did the “activity change, negative = inhibition” value turn out when `COc1ccc(OC(=O)/C=C/c2ccc([N+](=O)[O-])cc2)cc1` was run?
Answer: inactive: 7.04%

Question: With `COc1cc(/C=N/NC(=O)c2sc(N)c(C#N)c2C)ccc1O` as the compound, how does the “activity change, negative = inhibition” value read?
Answer: inactive: -19.2%

Question: Which Potency does the source give for `Cc1cccc(N2CCN(C(=O)c3ccc4nc(N5CCC(C)CC5)sc4c3)CC2)c1C` here?
Answer: inconclusive: 26.9 µM [inhibitor, partial curve]

Question: How did the Potency turn out when `C/C(=N/O)c1cccc(N2Cc3ccccc3C2)c1` was run?
Answer: inconclusive: 19 µM [inhibitor, partial curve]

Question: `FC(F)(F)c1cccc(-c2ccc(-c3csnn3)o2)c1` was tested. Which Potency did it give?
Answer: active: 16.9 µM

Question: How did the Potency turn out when `COc1cc(OC)c(/C=N/NC(=O)COc2cccc3cccnc23)c(OC)c1` was run?
Answer: inconclusive: 21.3 µM [inhibitor, single point]

Question: Which “activity change, negative = inhibition” value does the source give for `CNC(=S)N/N=C/C1=CCC2CC1C2(C)C` (configuration not stated) here?
Answer: inactive: 8.96%

Question: `COc1ccc2c(c1OC)C(=O)OC2N1C(=O)CC[C@H]1C(=O)Nc1ccc(F)cc1F` (some centres not stated) was tested. Which “activity change, negative = inhibition” value did it give?
Answer: inactive: 0.109%

Question: How did the Potency turn out when `CC1=NN(c2ccccc2)C(=O)C1C(=O)c1ccc([N+](=O)[O-])cc1` (configuration not stated) was run?
Answer: inconclusive: 30.1 µM [inhibitor, single point]

Question: `O=C(/C=C/c1ccc(Cl)cc1Cl)OCC(=O)N1CCCC1` was tested. Which Potency did it give?
Answer: active: 15.1 µM

Question: For `CN(CCc1cnn(C)c1)C(=O)CCc1nnc(CCCc2ccccc2)o1`, which Potency is on record?
Answer: inconclusive: 37.9 µM [inhibitor, partial curve, poor fit]

Question: With `COc1ccccc1OCC(=O)OC/C(O)=C(\C#N)c1nc2ccccc2[nH]1` as the compound, how does the Potency read?
Answer: inconclusive: 19 µM [inhibitor, partial curve, poor fit]

Question: For `O=C(NCc1ccccn1)C(=O)Nc1ccccc1`, which Potency is on record?
Answer: inconclusive: 23.9 µM [inhibitor, single point]

Question: With `O=C(Nc1ccc(-c2nc3ccccc3s2)cc1)c1cc(-n2cnnc2)ccc1Cl` as the compound, how does the Potency read?
Answer: inconclusive: 21.3 µM [inhibitor, partial curve]

Question: Which Potency does the source give for `O=C(CN1C(=O)/C(=C/c2ccc(C(F)(F)F)cc2)Sc2ccccc21)NCCCN1CCOCC1` here?
Answer: inconclusive: 37.9 µM [inhibitor, partial curve, poor fit]

Question: How did the Potency turn out when `Cc1ccn2c(NC(=O)c3cccc(Cl)c3)c(-c3ccccc3)nc2c1` was run?
Answer: inconclusive: 19 µM [inhibitor, partial curve, poor fit]

Question: Which Potency does the source give for `CN(C)c1ccc(NC(=O)CSc2nnc(-c3cccs3)n2Cc2ccco2)cc1` here?
Answer: inconclusive: 26.9 µM [inhibitor, single point]

Question: For `COCCCNC(=O)Cn1cc(/C=C(\C#N)C(=O)NC2CCCC2)c2ccccc21`, which Potency is on record?
Answer: inconclusive: 21.3 µM [inhibitor, partial curve, poor fit]

Question: `O=C(COc1ccccc1Br)c1ccc(O)cc1O` was tested. Which Potency did it give?
Answer: inconclusive: 30.1 µM [inhibitor, single point]

Question: With `c1ccc(-c2cc(-c3nnc4sc(-c5ccccn5)nn34)[nH]n2)cc1` as the compound, how does the Potency read?
Answer: active: 10.7 µM

Question: For `COc1ccccc1CNc1ccc(Br)cn1`, which Potency is on record?
Answer: inconclusive: 10.7 µM [inhibitor, partial curve]

Question: Which Potency does the source give for `OCCN1CCN(C(=S)Nc2ccc(SC(F)F)cc2)CC1` here?
Answer: inconclusive: 26.9 µM [inhibitor, single point]

Question: With `CCOc1ccc(N=NC2C(=O)N(C(N)=S)N=C2C)cc1` (configuration not stated) as the compound, how does the Potency read?
Answer: active: 3.79 µM

Question: `Cc1oc(-c2ccc(C(=O)NCCC(C)C)cc2)nc1CS(=O)(=O)c1ccccc1` was tested. Which “activity change, negative = inhibition” value did it give?
Answer: inactive: -3.33%

Question: Which “activity change, negative = inhibition” value does the source give for `CCS(=O)(=O)N1CC(=O)N(c2cccc(Cl)c2)C(C)(C(=O)NC2CCCCCC2)C1` (configuration not stated) here?
Answer: inactive: -1.15%

Question: Which “activity change, negative = inhibition” value does the source give for `N#Cc1c[nH]n2c(NC3CCCC3)c(-c3cccc(Br)c3)nc12` here?
Answer: inactive: -14%

Question: How did the Potency turn out when `COc1ccccc1N=C1NC(=O)/C(=C/c2ccc(N(C)C)cc2)S1` was run?
Answer: active: 1.07 µM

Question: For `O=C(NC1CC1)c1cc2cc(Br)ccc2s1`, which Potency is on record?
Answer: inconclusive: 6.75 µM [inhibitor, partial curve, poor fit]

Question: `COc1ccc(-c2cc(C(=O)NC(Cc3cc4ccccc4[nH]3)C(=O)O)c(C)o2)cc1OC` (configuration not stated) was tested. Which Potency did it give?
Answer: inconclusive: 23.9 µM [inhibitor, partial curve]

Question: Which Potency does the source give for `Cc1nc(/N=C(\N)NC(=O)c2ccccc2)nc2ccccc12` here?
Answer: inconclusive: 8.49 µM [inhibitor, partial curve]

Question: For `Cc1nn(C)c(C)c1/C=C1/SC(=S)NC1=O`, which Potency is on record?
Answer: inconclusive: 26.9 µM [inhibitor, partial curve, poor fit]

Question: How did the Potency turn out when `O=C(NNC(=O)c1cc(-c2ccncc2)nc2ccccc12)Nc1ccc(F)cc1` was run?
Answer: inconclusive: 33.8 µM [inhibitor, partial curve, poor fit]

Question: How did the “activity change, negative = inhibition” value turn out when `Cc1ccc(-c2nc3n(n2)C(c2ccccc2Cl)C=C(c2ccc(Cl)cc2)N3)cc1` (configuration not stated) was run?
Answer: inactive: -3.78%

Question: With `COc1ccc(-c2nc(SCc3ccccc3)n(C(=O)c3ccco3)n2)cc1` as the compound, how does the Potency read?
Answer: inconclusive: 15.1 µM [inhibitor, partial curve]

Question: With `Cc1cccc(NC(=O)CN2C(=O)N/C(=C\c3ccc(-c4cccc(C(=O)O)c4)o3)C2=O)c1` as the compound, how does the Potency read?
Answer: inconclusive: 37.9 µM [inhibitor, single point]

Question: With `NNC(=O)c1sccc1OCc1ccc(F)cc1` as the compound, how does the Potency read?
Answer: inconclusive: 21.3 µM [inhibitor, partial curve, poor fit]

Question: With `CC(=O)Nc1cccc(C(=O)N/N=C/c2cccc(C)n2)c1` as the compound, how does the Potency read?
Answer: inconclusive: 37.9 µM [inhibitor, single point]

Question: `CCOc1ccc(C(=O)COc2ccc(NC(C)=O)cc2)cc1` was tested. Which Potency did it give?
Answer: inconclusive: 30.1 µM [inhibitor, partial curve, poor fit]
